PubChem BioAssay AID1508642 (National Center for Advancing Translational Sciences (NCATS), 2021)
Out of some 43,000 compounds screened, about 200 (0.47%) were called active. Another 12% or so got no clear call; they are omitted. Calls come from the whole dose curve; as a rule, active = well fitted cell-killing curve with a large enough effect; inconclusive = small, poorly fitted or top-dose-only effect, or effect the other way; inactive = flat fitted curve, though single readings scatter. Some of the results follow.

test: Cell viability qHTS assay in S16 Pmp22-F2sN cells; conditions: S16 Pmp22-F2sN Schwann cells (luciferase reporters placed in the Pmp22 gene) viability, CellTiter-Glo, 24 h; series mostly up to 57.5 µM; activity change, negative = cytotoxicity: at the top concentration; note: nearly all actives have a fitted effect of over 65% in size
Summary of the method: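 Rat S16 Schwann reporter line, 24 h treatment with library compounds delivered at 23 nL per well. Cell viability by CellTiter-Glo luminescence.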
% is set by controls: 0 for no effect and ±100 for the full control effect; potency is the fitted concentration of half-maximal effect.

Which “activity change, negative = cytotoxicity” value does the source give for `CCOc1ccc(NC(=O)N2CC=C(c3c[nH]c4ccccc34)CC2)cc1` here?
Its value is inactive: 3.08%.

Which “activity change, negative = cytotoxicity” value does the source give for `COc1ccc(-n2c(=O)c3c4c(sc3n(Cc3ccccc3)c2=O)CN(C(C)=O)CC4)cc1OC` here?
The value was inactive: 9.77%.

Which “activity change, negative = cytotoxicity” value does the source give for `COc1ccccc1NC(=O)c1ccc2c(Cl)c3c(nc2c1)CCCC3` here?
The value was inactive: 21.9%.

Which “activity change, negative = cytotoxicity” value does the source give for `CCCCOC(=O)CSc1nnc(-c2ccccc2)o1` here?
The value was inactive: -15.5%.

With `Cc1ccc(C)c(N2CCN(C(=O)CN3CCSc4ccc(S(=O)(=O)N(C)C)cc43)CC2)c1` as the molecule, how does the “activity change, negative = cytotoxicity” value read?
Its value is inactive: -1.45%.

Which “activity change, negative = cytotoxicity” value does the source give for `O=c1c2cccnc2n(Cc2ccccc2F)c(=O)n1Cc1ccccc1Cl` here?
Its value is inactive: 14%.

For `CC(=O)Nc1nonc1-c1nnc(SCC(=O)Nc2cc(C)cc(C)c2)n1C`, which “activity change, negative = cytotoxicity” value is on record?
Its value is inactive: 0.689%.

Which “activity change, negative = cytotoxicity” value does the source give for `COC(=O)c1ccc(Cl)cc1NC(=O)N1CCCn2nc(C)cc21` here?
The value was inactive: 0.526%.

With `COc1cc(OC)c(NC(=O)CCCn2nc(C)c3sc4ccccc4c3c2=O)cc1Cl` as the molecule, how does the “activity change, negative = cytotoxicity” value read?
Its value is inactive: 0.398%.

For `COc1nc(-c2ccc(C)cc2)ccc1-c1noc(-c2ccccc2Br)n1`, which “activity change, negative = cytotoxicity” value is on record?
The value was inactive: 0.82%.

For `COc1ccc(-c2oc3ncn4nc(-c5ccccc5Br)nc4c3c2-c2ccc(OC)cc2)cc1`, which “activity change, negative = cytotoxicity” value is on record?
The value was inactive: 3.55%.

Which “activity change, negative = cytotoxicity” value does the source give for `Cc1oc2ncn(CC(C)C)c(=O)c2c1C(=O)N1CCN(c2ccc(F)cc2)CC1` here?
The value was inactive: 7.48%.

Which “activity change, negative = cytotoxicity” value does the source give for `COc1ccccc1CNc1ccc(-c2nc(C)no2)cc1[N+](=O)[O-]` here?
The value was inactive: -25.2%.

With `COc1cccc(NC(=O)/C(C#N)=C\c2cn(Cc3ccc(C)cc3)c3ccccc23)c1` as the molecule, how does the “activity change, negative = cytotoxicity” value read?
The value was inactive: -4.7%.

For `COc1cn(CC(=O)Nc2ccc(F)cc2)c(CN2CCCCC2)cc1=O`, which “activity change, negative = cytotoxicity” value is on record?
The value was inactive: 16.8%.

Which “activity change, negative = cytotoxicity” value does the source give for `COc1cccc(CSc2nc3n(n2)C(c2cccs2)C(C(=O)Nc2ccccc2C)=C(C)N3)c1` (stereo not drawn) here?
The value was inactive: -0.881%.

With `CCOC(=O)c1c(N)n(-c2ccc(Cl)c(Cl)c2)c2nc3ccccc3nc12` as the molecule, how does the “activity change, negative = cytotoxicity” value read?
Its value is inactive: 11.1%.

With `Cc1cccc(Cn2c(CN3CCC(C(=O)NCc4cccnc4)CC3)cc3ccccc32)c1` as the molecule, how does the “activity change, negative = cytotoxicity” value read?
The value was inactive: -22.3%.

With `Cc1ccc(NC(=O)Cn2c(=O)n(-c3ccc(Cl)c(Cl)c3)c(=O)c3c(C)c(C)sc32)c(C)c1` as the molecule, how does the “activity change, negative = cytotoxicity” value read?
The value was inactive: -14.7%.

Which “activity change, negative = cytotoxicity” value does the source give for `CC1=C(C(=O)Nc2ccccc2C)C(c2ccncc2)n2nc(SCc3ccccc3)nc2N1` (stereo not drawn) here?
Its value is inactive: 11%.

For `Cc1ccc(OCCn2cc(C(=O)C3CCCCC3)c3ccccc32)cc1`, which “activity change, negative = cytotoxicity” value is on record?
Its value is inactive: -8.19%.

With `CCOC(=O)c1ccc(NC(=O)CC2C(=O)N(c3cccc(OC)c3)C(=O)N2C2CCCCC2)cc1` (stereo not drawn) as the molecule, how does the “activity change, negative = cytotoxicity” value read?
Its value is inactive: -5.45%.

With `CCN(CC)CCNC(=O)c1sc2nc3n(c(=O)c2c1C)CCCCC3` as the molecule, how does the “activity change, negative = cytotoxicity” value read?
Its value is inactive: -3.8%.

With `COc1ccc(OCC2c3cc(OC)c(OC)cc3CCN2C(=O)c2ccc(F)cc2)cc1` (stereo not drawn) as the molecule, how does the “activity change, negative = cytotoxicity” value read?
The value was inactive: 3.04%.

With `COc1ccc2cc3cc(C(=O)N4CCN(c5ccc(C(C)=O)cc5)CC4)sc3nc2c1Cl` as the molecule, how does the “activity change, negative = cytotoxicity” value read?
The value was inactive: -0.756%.

Which Potency does the source give for `Cc1ccc(-c2cn3c(n2)sc2cc(C(=O)NCCCN4CCCCC4)ccc23)cc1` here?
The Potency was active: 3.98 µM.

Which “activity change, negative = cytotoxicity” value does the source give for `CCOC(=O)c1c(C)oc2nc(C)nc(N3CCN(c4ccc(C(C)=O)cc4)CC3)c12` here?
Its value is inactive: 4.88%.

Which “activity change, negative = cytotoxicity” value does the source give for `CC(C)(C)OC(=O)N1CCC(c2c(C(=O)NCc3ccc(F)cc3)cnn2-c2ccc(F)cc2)CC1` here?
Its value is inactive: -14.1%.

With `COc1cccc(C(=O)N(Cc2sccc2C)C2CCS(=O)(=O)C2)c1` (stereo not drawn) as the molecule, how does the “activity change, negative = cytotoxicity” value read?
The value was inactive: 16.6%.

For `Cc1cc(NC(=O)Cn2c(=O)nc(-c3ccccc3F)c3cc(Cl)ccc32)ccc1Br`, which “activity change, negative = cytotoxicity” value is on record?
The value was inactive: 1.68%.

With `O=S(=O)(NCc1nc2cccnc2n1Cc1ccc(F)cc1)c1ccc2c(c1)CCCC2` as the molecule, how does the “activity change, negative = cytotoxicity” value read?
The value was inactive: -6.97%.

With `CCOC(=O)c1ccc(NC(=O)c2c(NCc3cccs3)sc3c2CCCCC3)cc1` as the molecule, how does the “activity change, negative = cytotoxicity” value read?
The value was inactive: 12.8%.

Which “activity change, negative = cytotoxicity” value does the source give for `Cc1ccc(S(=O)(=O)c2cn(C)c3cc(N4CCCCCC4)c(F)cc3c2=O)cc1` here?
Its value is inactive: -1.28%.

Which “activity change, negative = cytotoxicity” value does the source give for `O=C(CCSCc1cnn(-c2ccccc2)c1-n1cccc1)NCc1ccccc1F` here?
Its value is inactive: -16.2%.

With `CCOc1ccc(NC(=O)c2cc3c(-c4ccccc4F)nn(C)c3s2)cc1` as the molecule, how does the “activity change, negative = cytotoxicity” value read?
Its value is inactive: 4.35%.

With `Cc1ccc(Cn2c(=O)n(-c3ccccc3)c(=O)c3ccc(C(=O)NCc4ccco4)cc32)cc1` as the molecule, how does the “activity change, negative = cytotoxicity” value read?
Its value is inactive: -25.8%.

Which “activity change, negative = cytotoxicity” value does the source give for `Cn1c(SCc2ccc(F)cc2)nc2c([nH]c3ccccc32)c1=O` here?
Its value is inactive: 7.13%.

For `CCOC(=O)c1cccc(NC(=O)c2ccc3c(c2)nnn3C2CCCC2)c1`, which “activity change, negative = cytotoxicity” value is on record?
Its value is inactive: -3.02%.

For `Cc1ccc(C2c3c(-c4ccccc4O)n[nH]c3C(=O)N2CCCO)cc1` (stereo not drawn), which “activity change, negative = cytotoxicity” value is on record?
The value was inactive: -5.05%.

With `O=C(NCCn1cc(SCc2ccc(F)cc2)c2ccccc21)c1c(F)cccc1F` as the molecule, how does the “activity change, negative = cytotoxicity” value read?
The value was inactive: 9.5%.

Which “activity change, negative = cytotoxicity” value does the source give for `Cn1cnc(S(=O)(=O)N2CCCC(C(=O)Nc3ccc(F)cc3Cl)C2)c1` (stereo not drawn) here?
The value was inactive: 2.56%.

Which “activity change, negative = cytotoxicity” value does the source give for `Cc1ccc(Cn2c(C(=O)Nc3cccc(Cl)c3)cc3sccc32)cc1` here?
Its value is inactive: 1.82%.

With `Cn1nnnc1SCCNCc1ccccc1OCc1ccccc1F` as the molecule, how does the “activity change, negative = cytotoxicity” value read?
Its value is inactive: -24.2%.

Which “activity change, negative = cytotoxicity” value does the source give for `CCCCc1cc(=O)oc2cc(C)c3c(C)coc3c12` here?
Its value is inactive: -1.82%.

With `COC(=O)c1ccc(NS(=O)(=O)c2ccc(-n3cccn3)cc2)cc1` as the molecule, how does the “activity change, negative = cytotoxicity” value read?
The value was inactive: 15.2%.

Which “activity change, negative = cytotoxicity” value does the source give for `COc1ccc2c(c1)CC(NC(=O)Nc1cc(Cl)ccc1OC)CO2` (stereo not drawn) here?
The value was inactive: -9.14%.

Which “activity change, negative = cytotoxicity” value does the source give for `CSc1nc(C)cc(Nc2c(C)cc(C)cc2C)n1` here?
The value was inactive: -7.43%.

Which “activity change, negative = cytotoxicity” value does the source give for `COc1cccc(C(=O)Nc2ccc(Cl)c(-c3nc4ccccc4[nH]3)c2)c1` here?
The value was inactive: -14.8%.
